# The list shows a part of the results.
# B1: CC1G-11630 (Coprinopsis cinerea), A8P462 (protein)
# chain: MTTEAKIKLKAVVYWELVFDYDNSSNTGEITQSYTVKISQTSTRSTFASEVSTTTIDTLTKNNQEVDVGASYGAISANVSASWEHSEEVNNMLEKTTQTSTEDTYTVETEETRSYTIGPGGMLSLFQKHFSGPGMHVAFDVFTTDLELAKERTEIDIDVDVEAIRFVREIRVVYTDIMSEAPGDHVREINGKNPDINYGFNGKFVWLVPEQTRKTAQALTNVEFVSQAESDDRYWDLAAGAGGSNRYLIPVYDTNNKDKIYELALWRSDSYITHDKVKAAGWSGTTGDINSGRGGTYLNLVWKTRHAY
# Tests used:
# Assay in all cases: glycan array binding signal (z-score within array); higher = stronger binding
# Conditions in all cases: glycan notation: IUPAC condensed, linker removed
# [1] = target: Gal(b1-4)GlcNAc(b1-3)Gal(b1-3)GlcNAc
# In short: (§1)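 Columns mapping to the same glycan were averaged after glycan names were converted to IUPAC-condensed notation. The data come from 3228 arrays in the Consortium for Functional Glycomics database, limited to those with an available protein sequence. Binding is reported as a within-array Z-score averaged across arrays of one protein sequence and across linkers.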
# [2] = target: Gal(b1-4)GlcNAc(b1-3)Gal(b1-4)Glc
# In short: as §1
# [3] = target: Gal(b1-4)GlcNAc(b1-3)Gal(b1-4)GlcNAc
# In short: as §1
# [4] = target: Gal(b1-4)GlcNAc(b1-3)Gal(b1-4)GlcNAc(b1-2)Man(a1-3)[Gal(b1-4)GlcNAc(b1-3)Gal(b1-4)GlcNAc(b1-2)Man(a1-6)]Man(b1-4)GlcNAc(b1-4)GlcNAc
# In short: as §1
# [5] = target: Gal(b1-4)GlcNAc(b1-3)Gal(b1-4)GlcNAc(b1-2)Man(a1-3)[Gal(b1-4)GlcNAc(b1-3)Gal(b1-4)GlcNAc(b1-2)Man(a1-6)]Man(b1-4)GlcNAc(b1-4)[Fuc(a1-6)]GlcNAc
# In short: as §1
# [6] = target: Gal(b1-4)GlcNAc(b1-3)Gal(b1-4)GlcNAc(b1-2)[Gal(b1-4)GlcNAc(b1-3)Gal(b1-4)GlcNAc(b1-6)]Man(a1-6)[Gal(b1-4)GlcNAc(b1-3)Gal(b1-4)GlcNAc(b1-2)Man(a1-3)]Man(b1-4)GlcNAc(b1-4)GlcNAc
# In short: as §1
# [7] = target: Gal(b1-4)GlcNAc(b1-3)Gal(b1-4)GlcNAc(b1-2)[Gal(b1-4)GlcNAc(b1-3)Gal(b1-4)GlcNAc(b1-6)]Man(a1-6)[Gal(b1-4)GlcNAc(b1-3)Gal(b1-4)GlcNAc(b1-2)Man(a1-3)]Man(b1-4)GlcNAc(b1-4)[Fuc(a1-6)]GlcNAc
# In short: as §1
# [8] = target: Gal(b1-4)GlcNAc(b1-3)Gal(b1-4)GlcNAc(b1-3)Gal(b1-4)GlcNAc
# In short: as §1
# [9] = target: Gal(b1-4)GlcNAc(b1-3)Gal(b1-4)GlcNAc(b1-3)Gal(b1-4)GlcNAc(b1-2)Man(a1-3)[Gal(b1-4)GlcNAc(b1-3)Gal(b1-4)GlcNAc(b1-3)Gal(b1-4)GlcNAc(b1-2)Man(a1-6)]Man(b1-4)GlcNAc(b1-4)GlcNAc
# In short: as §1
# [10] = target: Gal(b1-4)GlcNAc(b1-3)Gal(b1-4)GlcNAc(b1-3)Gal(b1-4)GlcNAc(b1-2)Man(a1-3)[Gal(b1-4)GlcNAc(b1-3)Gal(b1-4)GlcNAc(b1-3)Gal(b1-4)GlcNAc(b1-2)Man(a1-6)]Man(b1-4)GlcNAc(b1-4)[Fuc(a1-6)]GlcNAc
# In short: as §1
# [11] = target: Gal(b1-4)GlcNAc(b1-3)Gal(b1-4)GlcNAc(b1-3)Gal(b1-4)GlcNAc(b1-2)[Gal(b1-4)GlcNAc(b1-3)Gal(b1-4)GlcNAc(b1-3)Gal(b1-4)GlcNAc(b1-6)]Man(a1-6)[Gal(b1-4)GlcNAc(b1-3)Gal(b1-4)GlcNAc(b1-3)Gal(b1-4)GlcNAc(b1-2)Man(a1-3)]Man(b1-4)GlcNAc(b1-4)[Fuc(a1-6)]GlcNAc
# In short: as §1
# [12] = target: Gal(b1-4)GlcNAc(b1-3)Gal(b1-4)GlcNAc(b1-3)Gal(b1-4)GlcNAc(b1-3)Gal(b1-4)GlcNAc(b1-2)Man(a1-3)[Gal(b1-4)GlcNAc(b1-3)Gal(b1-4)GlcNAc(b1-3)Gal(b1-4)GlcNAc(b1-3)Gal(b1-4)GlcNAc(b1-2)Man(a1-6)]Man(b1-4)GlcNAc(b1-4)GlcNAc
# In short: as §1
# [13] = target: Gal(b1-4)GlcNAc(b1-3)Gal(b1-4)GlcNAc(b1-3)Gal(b1-4)GlcNAc(b1-3)Gal(b1-4)GlcNAc(b1-2)Man(a1-3)[Gal(b1-4)GlcNAc(b1-3)Gal(b1-4)GlcNAc(b1-3)Gal(b1-4)GlcNAc(b1-3)Gal(b1-4)GlcNAc(b1-2)Man(a1-6)]Man(b1-4)GlcNAc(b1-4)[Fuc(a1-6)]GlcNAc
# In short: as §1
# [14] = target: Gal(b1-4)GlcNAc(b1-3)Gal(b1-4)GlcNAc(b1-3)Gal(b1-4)GlcNAc(b1-3)Gal(b1-4)GlcNAc(b1-2)[Gal(b1-4)GlcNAc(b1-3)Gal(b1-4)GlcNAc(b1-3)Gal(b1-4)GlcNAc(b1-3)Gal(b1-4)GlcNAc(b1-6)]Man(a1-6)[Gal(b1-4)GlcNAc(b1-3)Gal(b1-4)GlcNAc(b1-3)Gal(b1-4)GlcNAc(b1-3)Gal(b1-4)GlcNAc(b1-2)Man(a1-3)]Man(b1-4)GlcNAc(b1-4)[Fuc(a1-6)]GlcNAc
# In short: as §1
# [15] = target: Gal(b1-4)GlcNAc(b1-3)Gal(b1-4)GlcNAc(b1-3)Gal(b1-4)GlcNAc(b1-3)Gal(b1-4)GlcNAc(b1-3)Gal(b1-4)GlcNAc(b1-2)Man(a1-3)[Gal(b1-4)GlcNAc(b1-3)Gal(b1-4)GlcNAc(b1-3)Gal(b1-4)GlcNAc(b1-3)Gal(b1-4)GlcNAc(b1-3)Gal(b1-4)GlcNAc(b1-2)Man(a1-6)]Man(b1-4)GlcNAc(b1-4)GlcNAc
# In short: as §1
# [16] = target: Gal(b1-4)GlcNAc(b1-3)Gal(b1-4)GlcNAc(b1-3)Gal(b1-4)GlcNAc(b1-3)Gal(b1-4)GlcNAc(b1-3)Gal(b1-4)GlcNAc(b1-2)Man(a1-3)[Gal(b1-4)GlcNAc(b1-3)Gal(b1-4)GlcNAc(b1-3)Gal(b1-4)GlcNAc(b1-3)Gal(b1-4)GlcNAc(b1-3)Gal(b1-4)GlcNAc(b1-2)Man(a1-6)]Man(b1-4)GlcNAc(b1-4)[Fuc(a1-6)]GlcNAc
# In short: as §1
# [17] = target: Gal(b1-4)GlcNAc(b1-3)Gal(b1-4)GlcNAc(b1-3)Gal(b1-4)GlcNAc(b1-3)Gal(b1-4)GlcNAc(b1-3)Gal(b1-4)GlcNAc(b1-2)[Gal(b1-4)GlcNAc(b1-3)Gal(b1-4)GlcNAc(b1-3)Gal(b1-4)GlcNAc(b1-3)Gal(b1-4)GlcNAc(b1-3)Gal(b1-4)GlcNAc(b1-6)]Man(a1-6)[Gal(b1-4)GlcNAc(b1-3)Gal(b1-4)GlcNAc(b1-3)Gal(b1-4)GlcNAc(b1-3)Gal(b1-4)GlcNAc(b1-3)Gal(b1-4)GlcNAc(b1-2)Man(a1-3)]Man(b1-4)GlcNAc(b1-4)[Fuc(a1-6)]GlcNAc
# In short: as §1
# [18] = target: Gal(b1-4)GlcNAc(b1-3)Gal(b1-4)GlcNAc(b1-3)Gal(b1-4)GlcNAc(b1-3)Gal(b1-4)GlcNAc(b1-3)Gal(b1-4)GlcNAc(b1-3)Gal(b1-4)GlcNAc(b1-2)Man(a1-3)[Gal(b1-4)GlcNAc(b1-3)Gal(b1-4)GlcNAc(b1-3)Gal(b1-4)GlcNAc(b1-3)Gal(b1-4)GlcNAc(b1-3)Gal(b1-4)GlcNAc(b1-3)Gal(b1-4)GlcNAc(b1-2)Man(a1-6)]Man(b1-4)GlcNAc(b1-4)GlcNAc
# In short: as §1
# [19] = target: Gal(b1-4)GlcNAc(b1-3)Gal(b1-4)GlcNAc(b1-3)GalNAc
# In short: as §1
binder,measurement,setting,value
B1,glycan array binding signal (z-score),[1],-0.286
same,glycan array binding signal (z-score),[2],-0.507
same,glycan array binding signal (z-score),[3],-0.335
same,glycan array binding signal (z-score),[4],2.49
same,glycan array binding signal (z-score),[5],-0.469
same,glycan array binding signal (z-score),[6],1.86
same,glycan array binding signal (z-score),[7],-0.146
same,glycan array binding signal (z-score),[8],0
same,glycan array binding signal (z-score),[9],1.59
same,glycan array binding signal (z-score),[10],-0.176
same,glycan array binding signal (z-score),[11],0.309
same,glycan array binding signal (z-score),[12],0.125
same,glycan array binding signal (z-score),[13],0.196
same,glycan array binding signal (z-score),[14],0.021
same,glycan array binding signal (z-score),[15],-0.29
same,glycan array binding signal (z-score),[16],0.479
same,glycan array binding signal (z-score),[17],-0.067
same,glycan array binding signal (z-score),[18],-0.034
same,glycan array binding signal (z-score),[19],-0.35
